# Data as given in a collection of fitness landscapes (doi:10.1126/science.1257360).
# This is one part of the list.
# B1: PhoQ; a variant is named by its letters at X, in order, P23837 (parent)
# chain: MKKLLRLFFPLSLRVRFLLATAAVVLVLSLAYGMVALIGYSVSFDKTTFRLLRGESNLFYTLAKWENNKLHVELPENIDKQSPTMTLIYDENGQLLWAQRDVPWLMKMIQPDWLKSNGFHEIEADVNDTSLLLSGDHSIQQQLQEVREDDDDAEMTHSVAVNVYPATSRMPKLTIVVVDTIPVELKSSYMVWSWFIYVLSANLLLVIPLLWVAAWWSLRPIEALAKEVRELEEHNRELLNPATTRELTSLVRNLNRLLKSERERYDKYRTTLTDLTHSLKTPLXXLQXXLRSLRSEKMSVSDAEPVMLEQISRISQQIGYYLHRASMRGGTLLSRELHPVAPLLDNLTSALNKVYQRKGVNISLDISPEISFVGEQNDFVEVMGNVLDNACKYCLEFVEISARQTDEHLYIVVEDDGPGIPLSKREVIFDRGQRVDTLRPGQGVGLAVAREITEQYEGKIVAGESMLGGARMEVIFGRQHSAPKDE
# Variants of: B1
# Test: enrichment ratio after two sorts for PhoP signalling (ratio (wild type AVST 3.29)); higher = more functional
# Settings: with PhoP (E. coli)
row,Variant,enrichment ratio
1,EPFM,≤ 0.25
2,NDSQ,≤ 0.25
3,RMIW,≤ 0.25
4,FQFV,≤ 0.25
5,PKNC,≤ 0.25
6,GACR,≤ 0.25
7,ADIQ,21.4
8,AEQY,17.1
9,HYGE,≤ 0.25
10,SPVD,≤ 0.25
11,GGTS,≤ 0.25
12,ECQG,≤ 0.25
13,GSSI,14.1
14,PACN,≤ 0.25
15,FFMH,≤ 0.25
16,EYTY,≤ 0.25
17,SRLS,≤ 0.25
18,YPNA,≤ 0.25
19,AYMN,≤ 0.25
20,ENIV,≤ 0.25
21,PFTS,≤ 0.25
22,RMTT,≤ 0.25
23,VNLP,≤ 0.25
24,TPFG,≤ 0.25

row,Variant,enrichment ratio
1,IAIV,≤ 0.25
2,GSQF,≤ 0.25
3,MSDW,≤ 0.25
4,DGLK,≤ 0.25
5,QGQR,≤ 0.25
6,VHWN,≤ 0.25
7,QVGG,2.44
8,YDDA,≤ 0.25
9,PINF,≤ 0.25
10,TEHQ,0.877
11,RGDV,≤ 0.25
12,LMWH,≤ 0.25
13,MPCH,≤ 0.25
14,SYFA,≤ 0.25
15,LGRQ,≤ 0.25
16,YSVE,≤ 0.25
17,EVCA,≤ 0.25
18,FPGQ,≤ 0.25
19,GLYP,≤ 0.25
20,SGSA,7.85
21,ADDF,≤ 0.25
22,IRTI,≤ 0.25
23,MRTC,≤ 0.25
24,FAVF,≤ 0.25

row,Variant,enrichment ratio
1,TCWD,≤ 0.25
2,SRCH,2.77
3,IRWQ,≤ 0.25
4,VNCL,4.33
5,NGPR,≤ 0.25
6,GEFR,≤ 0.25
7,SRDP,≤ 0.25
8,MSDL,≤ 0.25
9,MAIS,≤ 0.25
10,TMFL,≤ 0.25
11,RDVI,≤ 0.25
12,LPNE,≤ 0.25
13,ANKW,≤ 0.25
14,IQSF,≤ 0.25
15,CMRL,≤ 0.25
16,IFYK,≤ 0.25
17,NEFN,≤ 0.25
18,KTPG,≤ 0.25
19,VTMF,1.14
20,LKIM,≤ 0.25
21,KCHK,≤ 0.25
22,LPAG,≤ 0.25
23,KIEA,≤ 0.25
24,ILLC,≤ 0.25

row,Variant,enrichment ratio
1,NTTW,≤ 0.25
2,NRGP,0.361
3,QWLW,≤ 0.25
4,LTKS,≤ 0.25
5,PLGW,≤ 0.25
6,KQWP,≤ 0.25
7,MTRD,≤ 0.25
8,VHTD,≤ 0.25
9,KAMV,≤ 0.25
10,YQTH,≤ 0.25
11,HQFC,≤ 0.25
12,LFGR,≤ 0.25
13,GYRM,≤ 0.25
14,IWGT,≤ 0.25
15,LEHW,≤ 0.25
16,AKAP,≤ 0.25
17,TGCR,≤ 0.25
18,YFAD,≤ 0.25
19,LPWW,≤ 0.25
20,SEMS,14.3
21,TPMW,≤ 0.25
22,IPAE,≤ 0.25
23,LRYT,≤ 0.25
24,ICWF,≤ 0.25

row,Variant,enrichment ratio
1,AERH,≤ 0.25
2,EGLM,≤ 0.25
3,GAWR,≤ 0.25
4,ANHM,≤ 0.25
5,VCMP,≤ 0.25
6,IHII,≤ 0.25
7,HCKG,≤ 0.25
8,YAIY,≤ 0.25
9,HDLD,≤ 0.25
10,DCPT,≤ 0.25
11,NTLH,≤ 0.25
12,AKFF,≤ 0.25
13,NDLW,≤ 0.25
14,GIGE,≤ 0.25
15,VSYR,≤ 0.25
16,SKLT,4.23
17,GFLH,≤ 0.25
18,GAVH,≤ 0.25
19,RALV,≤ 0.25
20,NFQN,≤ 0.25
21,PRNR,≤ 0.25
22,SMNG,≤ 0.25
23,ILAS,≤ 0.25
24,RDLM,≤ 0.25

row,Variant,enrichment ratio
1,NEIL,≤ 0.25
2,INYD,≤ 0.25
3,DVYH,≤ 0.25
4,RVNL,≤ 0.25
5,WAYM,≤ 0.25
6,TREM,≤ 0.25
7,WWSG,≤ 0.25
8,NEVP,≤ 0.25
9,QCHN,≤ 0.25
10,FLVW,≤ 0.25
11,MSQH,≤ 0.25
12,TVCS,11.4
13,ELNV,≤ 0.25
14,DQCM,≤ 0.25
15,WHRN,≤ 0.25
16,RCYY,≤ 0.25
17,YPMV,≤ 0.25
18,RWAF,≤ 0.25
19,PCAE,≤ 0.25
20,PMFL,≤ 0.25
21,TPPP,≤ 0.25
22,IMSD,≤ 0.25
23,LNGQ,≤ 0.25
24,VRRQ,≤ 0.25

row,Variant,enrichment ratio
1,HNGM,3.65
2,LWIV,≤ 0.25
3,WTIP,≤ 0.25
4,GNWL,≤ 0.25
5,WDWM,≤ 0.25
6,PPFR,≤ 0.25
7,SNHD,≤ 0.25
8,FRDK,≤ 0.25
9,LMHD,≤ 0.25
10,APMT,≤ 0.25
11,YRSC,≤ 0.25
12,SLFP,≤ 0.25
13,EKNI,≤ 0.25
14,QINH,1.69
15,HWWV,≤ 0.25
16,PGNA,≤ 0.25
17,RGVT,≤ 0.25
18,TYDT,≤ 0.25
19,KVLW,≤ 0.25
20,VWRF,≤ 0.25
21,QHFY,≤ 0.25
22,WYAE,≤ 0.25
23,DRNF,≤ 0.25
24,RMMV,≤ 0.25

row,Variant,enrichment ratio
1,PLGH,≤ 0.25
2,LSIV,≤ 0.25
3,LQAD,≤ 0.25
4,DQPK,≤ 0.25
5,YQVP,≤ 0.25
6,MQFP,≤ 0.25
7,SKYM,≤ 0.25
8,ESWQ,≤ 0.25
9,VREL,≤ 0.25
10,PFEW,≤ 0.25
11,YVNW,≤ 0.25
12,DNRE,≤ 0.25
13,TAWF,5.36
14,PRHT,≤ 0.25
15,SFVY,≤ 0.25
16,MQVN,≤ 0.25
17,MERD,≤ 0.25
18,EEIF,≤ 0.25
19,MDVE,≤ 0.25
20,YHDH,≤ 0.25
21,FMCF,≤ 0.25
22,MCCF,4.87
23,EMVN,≤ 0.25
24,DLMI,≤ 0.25

row,Variant,enrichment ratio
1,DMVY,≤ 0.25
2,MDLG,≤ 0.25
3,MKAN,≤ 0.25
4,PFDM,≤ 0.25
5,NQNM,≤ 0.25
6,ANLA,5.31
7,KFWA,≤ 0.25
8,RPVC,≤ 0.25
9,DHYN,≤ 0.25
10,FYYT,≤ 0.25
11,KMHP,≤ 0.25
12,KGPG,≤ 0.25
13,ERRF,≤ 0.25
14,RTIK,≤ 0.25
15,WRRG,≤ 0.25
16,SQAW,≤ 0.25
17,VNKC,≤ 0.25
18,AHLM,12.1
19,IQHA,≤ 0.25
20,FVKP,≤ 0.25
21,EDKV,≤ 0.25
22,VALC,5.37
23,RKIH,≤ 0.25
24,IHIE,≤ 0.25

row,Variant,enrichment ratio
1,PDLA,≤ 0.25
2,HCYH,≤ 0.25
3,VVFA,≤ 0.25
4,MHGD,≤ 0.25
5,NPQG,≤ 0.25
6,QYSH,≤ 0.25
7,DEAR,≤ 0.25
8,FLVQ,≤ 0.25
9,VNNC,≤ 0.25
10,RLKK,≤ 0.25
11,TDGM,≤ 0.25
12,SGVL,8.84
13,MFHD,≤ 0.25
14,HDHG,≤ 0.25
15,SECL,18.7
16,AFFW,≤ 0.25
17,LHAE,≤ 0.25
18,KLAC,≤ 0.25
19,PGTS,≤ 0.25
20,AIHW,≤ 0.25
21,QAIF,≤ 0.25
22,HWTT,≤ 0.25
23,PTFY,≤ 0.25
24,HWLH,≤ 0.25

row,Variant,enrichment ratio
1,QRMW,≤ 0.25
2,HFYP,≤ 0.25
3,NADP,≤ 0.25
4,PRIM,≤ 0.25
5,SEWT,13.2
6,FSKE,≤ 0.25
7,IIVV,≤ 0.25
8,PDKD,≤ 0.25
9,HNWS,≤ 0.25
10,QAYC,≤ 0.25
11,FECQ,3.31
12,YLIL,≤ 0.25
13,PEPI,≤ 0.25
14,DPSI,≤ 0.25
15,FIMD,≤ 0.25
16,WYGM,≤ 0.25
17,SNFG,≤ 0.25
18,KEMG,≤ 0.25
19,KVVR,≤ 0.25
20,IMAA,≤ 0.25
21,QLVV,≤ 0.25
22,VNGT,≤ 0.25
23,PVTP,≤ 0.25
24,MPHS,≤ 0.25

row,Variant,enrichment ratio
1,VIHK,≤ 0.25
2,LFQH,≤ 0.25
3,PWVG,≤ 0.25
4,VKSP,≤ 0.25
5,QMPF,≤ 0.25
6,FLLQ,0.481
7,LYYF,≤ 0.25
8,DLGH,≤ 0.25
9,LHKW,≤ 0.25
10,SFRL,≤ 0.25
11,YEWS,≤ 0.25
12,TGRQ,≤ 0.25
13,PMIM,≤ 0.25
14,FGHR,≤ 0.25
15,VLIS,≤ 0.25
16,TASK,0.795
17,GRED,≤ 0.25
18,NHRK,≤ 0.25
19,ARRS,≤ 0.25
20,GTWQ,≤ 0.25
21,HEKD,≤ 0.25
22,ARKH,≤ 0.25
23,SYGG,≤ 0.25
24,MFYY,≤ 0.25

row,Variant,enrichment ratio
1,MVVL,≤ 0.25
2,FFGF,≤ 0.25
3,NELE,≤ 0.25
4,HAKP,≤ 0.25
5,GWAH,≤ 0.25
6,AVAQ,≤ 0.25
7,RQMM,≤ 0.25
8,KDTL,≤ 0.25
9,YHVV,≤ 0.25
10,VGLN,≤ 0.25
11,ASNT,≤ 0.25
12,WKTH,≤ 0.25
13,RVIV,≤ 0.25
14,YWLS,≤ 0.25
15,NLCE,≤ 0.25
16,VNPA,≤ 0.25
17,TTEG,≤ 0.25
18,LCVV,≤ 0.25
